Experimental data as given in PubChem BioAssay AID488969 (Vanderbilt High Throughput Screening Facility, 2010).
The full ranking holds about 110,000 compounds; the median of “z-score” is about -0.1, and the highest 2% start at about 2. Some of the results follow. Activity calls are given as the source filed them.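 How the source made its calls: active means z-score in the third read window above 3 or below -3; inactive means the rest.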

Target: Metabotropic glutamate receptor 8 (Rattus norvegicus) (UniProt P70579)
Chain of UniProt P70579 (P70579 whole entry, looked up): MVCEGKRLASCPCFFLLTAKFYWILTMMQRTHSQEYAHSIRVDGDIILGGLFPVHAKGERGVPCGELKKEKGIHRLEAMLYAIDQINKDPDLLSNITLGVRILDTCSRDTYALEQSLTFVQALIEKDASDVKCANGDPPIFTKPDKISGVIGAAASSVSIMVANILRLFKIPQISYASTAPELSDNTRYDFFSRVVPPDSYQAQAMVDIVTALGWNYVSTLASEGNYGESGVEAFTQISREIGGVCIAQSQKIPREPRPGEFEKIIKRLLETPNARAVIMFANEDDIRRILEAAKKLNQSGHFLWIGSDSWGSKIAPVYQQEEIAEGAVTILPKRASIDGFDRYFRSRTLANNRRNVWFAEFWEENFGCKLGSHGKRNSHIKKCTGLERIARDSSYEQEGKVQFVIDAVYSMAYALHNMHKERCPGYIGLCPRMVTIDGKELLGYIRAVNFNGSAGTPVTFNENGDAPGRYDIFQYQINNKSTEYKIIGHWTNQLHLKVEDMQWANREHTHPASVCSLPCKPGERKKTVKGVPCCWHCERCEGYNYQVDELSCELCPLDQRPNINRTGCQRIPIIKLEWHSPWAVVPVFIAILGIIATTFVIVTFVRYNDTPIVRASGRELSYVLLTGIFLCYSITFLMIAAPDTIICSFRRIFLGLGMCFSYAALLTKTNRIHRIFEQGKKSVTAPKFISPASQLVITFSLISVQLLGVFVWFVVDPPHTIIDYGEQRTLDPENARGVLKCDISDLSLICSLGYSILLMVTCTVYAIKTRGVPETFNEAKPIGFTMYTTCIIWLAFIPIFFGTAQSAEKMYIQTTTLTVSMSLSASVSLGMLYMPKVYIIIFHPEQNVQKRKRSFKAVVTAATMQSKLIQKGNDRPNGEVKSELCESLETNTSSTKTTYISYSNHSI
Assay: mGluR8 Gi/Go-coupled signaling modulation – cell-based, rat, thallium flux, HTS, primary screen (AID 488969)
Settings: HEK293 rat mGluR8, GIRK (G protein-gated inwardly rectifying potassium channel) thallium flux, FluoZin2; at 10 µM; stronger effect = higher value; submaximal glutamate (EC20) added with thallium

Point of comparison: `O=C(Nc1cc2c(cc1Cl)OCCCO2)c1ccc(F)cc1`, z-score -0.361. Against it:
- CC(C)C(C(=O)Nc1sc2c(c1C#N)CCCCC2)N1C(=O)c2ccccc2C1=O (stereo not given) — higher, -0.18
- O=C(COC(=O)c1ccc(O)cc1)Nc1ccccc1-c1ccccc1 — higher, -0.347
- CC(Nc1nc(N2CCCCC2)nc2ccccc12)c1ccccc1 (stereo not given) — lower, -2.21
- O=C(N/C(=C/c1ccco1)C(=O)N1CCCC1)c1cccs1 — higher, 0.148
- COc1cc(/C=N/NC(=O)CN2CCCCC2)ccc1OCc1ccccc1 — higher, 0.0766
- CCN(CC)S(=O)(=O)c1ccc(Cl)c(NC(=O)c2cc(Cl)ccc2Cl)c1 — higher, -0.0935
- O=C1CCCC(=NCc2ccco2)C1 — higher, 0.0744
- COC(=O)CCC(=O)NNC(=O)c1cccc(Br)c1 — lower, -0.79
- CCCCCOC(=O)C1C2C=CC3(CN(c4ccccc4C)C(=O)C13)O2 (stereo not given) — higher, -0.35
- COc1cc(NS(=O)(=O)c2ccc(NC(=S)NC(=O)c3cccs3)cc2)nc(OC)n1 — higher, -0.131
- Cc1cc(C)c[n+](-c2nc3ccccc3nc2C(=C=[N-])C#N)c1 — higher, -0.00621
- Cc1ccc(S(=O)(=O)N(C(=O)c2ccco2)c2cc3sc(=O)oc3c3ccccc23)cc1 — higher, -0.0695
- CSCC[C@H](NC(=O)CCNC(C)=O)c1nc2ccccc2[nH]1 — higher, 0.0156
- COc1ccc(C2C(C(=O)N3CC(C)CC(C)C3)c3ccccc3C(=O)N2C)cc1 (stereo not given) — higher, 0.0797
- NC(=O)COC(=O)CCCc1c[nH]c2ccccc12 — lower, -0.891
- COc1cc(OC)nc(NC(=O)C(C)C)n1 — lower, -0.45
- CCC/C(O)=C1\C(=O)CCCC1=NCCCCCC(=O)O — higher, 0.156
- C[C@H](NC(=O)OC(C)(C)C)c1nnc(SCC(=O)c2ccc(Cl)cc2)o1 — higher, 0.135
- Cc1ccc(CCSCC(=O)O)cn1 — higher, -0.135
- CCN1CCN(C(=O)c2ccc(Cn3c(=O)[nH]c4cc(OC)c(OC)cc4c3=O)cc2)CC1 — higher, -0.289
- CC1=C(C(=O)NC(C)c2ccc3c(c2)OCCO3)C2(CCC(C)CC2)OC1=O (stereo not given) — higher, 0.417
- COc1cccc2sc(Nc3nc4ccc(NC(C)=O)cc4s3)nc12 — higher, -0.147
- COc1ccc(NC(=O)C2CCN(S(C)(=O)=O)CC2)cc1Cl — higher, 0.0392
- COc1cccc(C(=O)NC2CC3CCCC(C2)N3CC(=O)Nc2ccc(N(C)C)cc2)c1 (stereo not given) — higher, 0.0584
- CCCCCOC(=O)c1c(N)n(CCOC)c2nc3ccccc3nc12 — lower, -2.04
- CN(C)c1ccc(CNCCC2CCOC(C)(C)C2)cc1 (stereo not given) — higher, 0.694
- CC(=O)c1ccc(NC(=O)COC(=O)CCC(=O)c2cccs2)cc1 — higher, 0.114
- CCCn1c2c(c(O)c(C(=O)Nc3ncccc3C)c1=O)CCCC2 — higher, -0.047
- CC1CCN(Cc2nc3c(c(=O)n(C)c(=O)n3C)n2Cc2c(F)cccc2Cl)CC1 — higher, -0.27
- O=[N+]([O-])c1c(NCCCO)cc(N2CCN(Cc3ccc4c(c3)OCO4)CC2)c2nonc12 — lower, -0.819
- CCCn1c(NC(=S)Nc2ccccc2)nc2ccccc21 — higher, 2.89
- COc1ccc(S(=O)(=O)NCCSc2ccccc2)cc1OC — higher, 0.146
- Cc1ccc(C)c(NC(=O)c2ncn[nH]2)c1 — higher, -0.302
- Cn1c(CNc2nc3ccccc3n2CCN2CCCCC2)nc2ccccc21 — lower, -1.25
- COc1ccccc1-c1c(C(F)(F)F)oc2cc(OS(C)(=O)=O)ccc2c1=O — higher, -0.178
- O=[N+]([O-])c1ccc(N2CCN(c3ccccc3F)CC2)c(S(=O)(=O)N2CCOCC2)c1 — higher, -0.179
- C=C(C)CSc1nnc2n(Cc3ccccc3)c(=O)c3c4c(sc3n12)CCC4 — lower, -0.86
- COc1ccc(-c2cn3cccc(C)c3n2)cc1Br — higher, -0.167
- CC(=O)Nc1ccccc1-c1nc2ccccc2nc1OCC(=O)c1ccc2ccccc2c1 — higher, -0.276
- CCn1c(Sc2ccc(N)cc2Cl)nc2ccccc21 — higher, 0.839
- Cc1cc(Cl)ccc1OCC(=O)NCCOC(=O)Nc1sc(=S)n(C)c1C — lower, -0.44
- COc1ccc(C(N)=S)c(OC)c1 — higher, -0.0242
- CC(C)(C)c1[nH]nc2c1C(c1ccccc1OC(=O)N1CCOCC1)C(C#N)=C(N)O2 (stereo not given) — lower, -2.43
- Cc1[nH]nc2c1C(c1ccc(F)cc1)C1=C(CC(C)(C)CC1=O)N2 (stereo not given) — lower, -0.729
- Cc1ccc(OCCCn2ccnc2)c([N+](=O)[O-])c1 — higher, -0.08
- N#CC(=C1N=c2ccccc2=N1)c1c(O)[nH]c2ccccc12 — higher, 0.0967
- CCCCOC(=O)CCc1nc2ccccc2[nH]1 — higher, 0.563
- CC(NS(=O)(=O)c1ccc(F)cc1)C(=O)NCc1ccncc1 (stereo not given) — higher, 0.325
- COc1ccc(NS(=O)(=O)c2cccc(NC(=O)NC3CCCCC3)c2)cc1 — lower, -0.413
- CCOC(=O)c1cccc(N2C(=O)C3C(C(=O)NC4CC4)C4(C)C=CC3(O4)C2C(=O)NC(C)(C)C)c1 (stereo not given) — higher, -0.0413
- COc1ccccc1-n1c(CNC(=O)c2ccco2)nnc1SCC(=O)Nc1ccc(F)cc1 — lower, -0.722
- Cc1cc(-n2ccc(=O)[nH]c2=O)nc(-c2ccccc2)n1 — higher, -0.208
- COc1ccccc1N1CCN(C(=O)c2ccc3[nH]c4c(c3c2)CC(C)CC4)CC1 (stereo not given) — higher, -0.105
- CN(Cc1ccccc1)S(=O)(=O)c1ccc(C(=O)Nc2nnc(C3CC3)o2)cc1 — higher, -0.0388
- C=CCN(c1ccccc1OC)S(=O)(=O)c1cccc(C(=O)OCC(=O)c2c[nH]c3ccccc23)c1 — higher, 0.0221
- CCN(CC)c1ccc(/C=C2/C(=O)ON=C2C)cc1 — lower, -0.917
- Cc1nc(Nc2ccccc2)[nH]c(=O)c1CCC(C)C — higher, 2.73
- CCOc1ccccc1-n1c(SCC(N)=O)nnc1-c1ccc(O)cc1 — higher, -0.253
- Cc1n[nH]c(=O)nc1N1CCc2ccccc2C1 — higher, 0.362
- Cc1cccc(N(C2C=CS(=O)(=O)C2)S(=O)(=O)c2ccccc2)c1 (stereo not given) — higher, 0.452
- COC(=O)c1sccc1NC(=S)N1CCC(C)CC1 — higher, 0.701
- O=C(O)CCCNS(=O)(=O)Cc1ccccc1 — higher, -0.122
- Clc1cc(Cl)c2nc(N3CCCC3)sc2c1 — higher, 0.206
- O=C(Oc1ccc2c(c1)OCC2=O)c1ccccc1 — higher, 0.436
- CC1=NN(C(N)=S)C(=O)C1N=Nc1c(C)cc(C)cc1C (stereo not given) — higher, 0.119
- O=C(CN(c1ccccc1)S(=O)(=O)c1ccccc1)NCCSCc1ccco1 — higher, -0.329
- CC1=C(C#N)C(NC(=O)c2ccc(C)cc2)(C(F)(F)F)C(=O)N1 (stereo not given) — higher, -0.1
- Nc1c(C(=O)NCCN2CCOCC2)c2nc3ccccc3nc2n1-c1ccccc1 — higher, 0.913

`CCN(CC)CCCn1c(=S)[nH]c2cc(Cl)ccc2c1=O` was tested, and the z-score was active: 4.1.
